Reference: the supplement of paper PMC4166925
± gives the standard deviation of the averaged measurements. Whole data set: some 33,000 sequences, median “E-score (dimensionless, -0.5 to 0.5)” near -0.049, cut for the highest 2% near 0.37. This is one part of the list.

Test system: T1, PmTbr T-box DNA-binding domain (GST fusion)
T1 sequence: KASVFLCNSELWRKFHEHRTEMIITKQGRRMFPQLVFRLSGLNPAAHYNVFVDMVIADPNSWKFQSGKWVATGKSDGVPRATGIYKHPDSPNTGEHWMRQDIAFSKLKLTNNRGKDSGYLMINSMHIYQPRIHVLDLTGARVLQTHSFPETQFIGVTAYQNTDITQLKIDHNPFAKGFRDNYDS
Assay: PBM E-score of 8-mer (E-score (dimensionless, -0.5 to 0.5)); Tbr is Tbrain of the sea star Patiria miniata (Pm) or the sea urchin Strongylocentrotus purpuratus (Sp); higher = stronger binding preference; most listed sequences are background and not binding sites
Conditions: the construct has about 5 more residues each side
Procedure, shortened: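 Using the Universal PBM Analysis Suite, every ungapped 8-mer received an enrichment E-score averaged over duplicate arrays. Probe intensities came from double-stranded Universal Agilent oligonucleotide arrays incubated with 200 nM GST-fused Tbr T-box DNA-binding domain in PBS (pH 7.5). That protein was expressed in BL21 E. coli at 20 °C and purified by glutathione affinity chromatography.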

Row | Sequence | PBM E-score of 8-mer
1 | CAATGAAA | -0.144 ± 0.016
2 | ACCATTCC | -0.166 ± 0.044
3 | ACGGACAG | -0.0235 ± 0.037
4 | AAAGAACG | 0.024 ± 0.12
5 | CTTTGTAA | -0.11 ± 0.028
6 | AGCAAGGG | -0.0741 ± 0.017
7 | GAGCCGGA | -0.323 ± 0.056
8 | AACGTACC | -0.3161 ± 0.0024
9 | CGCACATC | 0.298 ± 0.055
10 | CTCTCGTC | 0.0265 ± 0.033
11 | AAGGAACA | -0.118 ± 0.0046
12 | AATGGCCG | -0.102 ± 0.016
13 | ATATCGTG | -0.0273 ± 0.033
14 | GAAGTGCC | 0.263 ± 0.019
15 | GGGATTAC | -0.237 ± 0.013
16 | ATTCGGCC | -0.0926 ± 0.031
17 | GTCATCCA | -0.0697 ± 0.046
18 | TATGCATA | -0.225 ± 0.13
19 | ACTTTCCA | 0.132 ± 0.068
20 | CATTTAGA | -0.0146 ± 0.053
21 | CTCAGAGA | -0.262 ± 0.012
22 | TGGTTAAA | -0.0566 ± 0.039
23 | GTGAATAA | 0.232 ± 0.034
24 | AGGACCCT | -0.212 ± 0.034
25 | CGTAAAAA | 0.0578 ± 0.11

Row | Sequence | PBM E-score of 8-mer
26 | AGACACAA | 0.109 ± 0.045
27 | ATGCTTTG | 0.059 ± 0.0019
28 | ATAATTAT | -0.253 ± 0.067
29 | ACCTTTCT | 0.0952 ± 0.074
30 | ATAAATGC | -0.0598 ± 0.0058
31 | CTTGTGCC | -0.0904 ± 0.087
32 | CCTCTACC | -0.098 ± 0.056
33 | ACAGAGGG | -0.0884 ± 0.035
34 | ATCAACCG | -0.152 ± 0.025
35 | CCCCAGGC | -0.14 ± 0.032
36 | ATTGTATC | 0.0415 ± 0.056
37 | CTCACGGA | 0.101 ± 0.029
38 | ACACTGCC | 0.0607 ± 0.029
39 | ATTGGGAC | -0.1674 ± 0.0014
40 | ATCCCACA | 0.225 ± 0.0026
41 | ATTCAGCC | -0.17 ± 0.0028
42 | ACGGGGTC | -0.11 ± 0.008
43 | ACGGCGCA | -0.00829 ± 0.17
44 | CGAAAGAC | -0.0547 ± 0.025
45 | GGTGTAAC | 0.363 ± 0.027
46 | ACATGAGG | 0.00911 ± 0.069
47 | CATTAGTC | -0.315 ± 0.087
48 | ACCGTTGG | 0.145 ± 0.016
49 | CTTTTACA | 0.169 ± 0.025
50 | GCAGGCCA | -0.254 ± 0.083

Row | Sequence | PBM E-score of 8-mer
51 | AGGGTCTA | -0.0889 ± 0.0069
52 | GAATATGA | -0.0756 ± 0.03
53 | GAAAGAGC | 0.0399 ± 0.044
54 | CCCAAACG | -0.119 ± 0.045
55 | CCCACGGC | 0.057 ± 0.0049
56 | ATGCACGG | -0.169 ± 0.018
57 | CGCTTCAG | -0.0405 ± 0.068
58 | GCACCTCA | 0.35 ± 0.037
59 | CATCTTAA | 0.043 ± 0.13
60 | AAATGACG | 0.0901 ± 0.0066
61 | CGAGGTAG | -0.11 ± 0.044
62 | AACCTGAG | 0.0264 ± 0.17
63 | CTCAACGC | 0.0473 ± 0.082
64 | AGTGCATC | -0.183 ± 0.14
65 | ACAACCCA | 0.0479 ± 0.054
66 | AAGGCGGA | -0.00558 ± 0.018
67 | CGTCGACG | 0.0145 ± 0.048
68 | GTAGTTGA | 0.0256 ± 0.03
69 | AAGGGAGG | -0.2389 ± 0.0022
70 | ACGTTATA | 0.0261 ± 0.051
71 | CATGCGGA | -0.111 ± 0.045
72 | CCAGGATA | -0.172 ± 0.039
73 | AGTGCACC | -0.108 ± 0.086
74 | ACACACAG | 0.2395 ± 0.0016
75 | GTCTACTA | -0.136 ± 0.019

Row | Sequence | PBM E-score of 8-mer
76 | ACAACGGC | 0.126 ± 0.018
77 | ATGATGAG | -0.246 ± 0.02
78 | CGCACCCA | 0.326 ± 0.04
79 | CAGCACGC | 0.143 ± 0.092
80 | ACCCTCGC | 0.119 ± 0.028
81 | CATGAGAG | -0.0683 ± 0.043
82 | ATACAATA | -0.204 ± 0.073
83 | GTGGATCA | -0.0755 ± 0.025
84 | AGGCGTTG | 0.369 ± 0.0053
85 | CTGATGAC | 0.149 ± 0.0035
86 | ACCAATCT | -0.135 ± 0.066
87 | GCGGATGA | -0.0593 ± 0.026
88 | AAGCAACT | -0.123 ± 0.016
89 | CTATCGCC | 0.261 ± 0.037
90 | AACCTCCC | -0.0756 ± 0.12
91 | CGGTGATA | 0.187 ± 0.0068
92 | GGAATTTA | -0.0365 ± 0.0034
93 | CAGATTCC | -0.0266 ± 0.064
94 | CGCTAATC | 0.107 ± 0.016
95 | CCGTTAGC | 0.27 ± 0.018
96 | AAAAAACG | 0.0611 ± 0.07
97 | AAATCGTG | 0.21 ± 0.036
98 | TACCGCGA | 0.0973 ± 0.005
99 | GTGAAAGA | 0.27 ± 0.031
100 | CTGACCTC | -0.099 ± 0.0038

Row | Sequence | PBM E-score of 8-mer
101 | AGTAGTTG | 0.0125 ± 0.064
102 | CACCTCAC | 0.4504 ± 0.0025
103 | ATCAGAAG | -0.0178 ± 0.033
104 | AGGCAGCG | -0.0107 ± 0.078
105 | GCCGGACC | -0.209 ± 0.099
106 | CTTGTATC | -0.0802 ± 0.031
107 | TGAGTGAA | -0.029 ± 0.0024
108 | GATGTCCA | -0.225 ± 0.0019
109 | CAAGGAAG | -0.256 ± 0.043
110 | GAGATACC | -0.0262 ± 0.061
111 | GTAGGGCA | -0.299 ± 0.015
112 | ATCCCTTG | -0.0587 ± 0.13
113 | AATCACCC | 0.193 ± 0.0068
114 | GCTGTAAC | -0.0752 ± 0.0097
115 | AGAGGGGC | -0.308 ± 0.083
116 | AAAGATAC | -0.194 ± 0.03
117 | ACCGCCTC | -0.0415 ± 0.022
118 | AAGGTCGC | 0.182 ± 0.048
119 | ACAGATCT | -0.066 ± 0.012
120 | CTATTCAG | -0.0996 ± 0.0059
121 | AAGGCAAC | 0.0723 ± 0.07
122 | ACGGGACA | 0.046 ± 0.0098
123 | CAGATTTA | -0.154 ± 0.024
124 | AAGATCCT | -0.242 ± 0.024
125 | GCCCAAGA | -0.228 ± 0.1

Row | Sequence | PBM E-score of 8-mer
126 | AATTGAGG | -0.164 ± 0.043
127 | ATATATCA | -0.0331 ± 0.07
128 | ACCAAACT | -0.11 ± 0.026
129 | ACCATGAA | -0.0721 ± 0.014
130 | GTGCATAA | -0.0546 ± 0.0058
131 | GTGGTCCA | -0.254 ± 0.0079
132 | CGGGCGCC | -0.106 ± 0.1
133 | ATGCCAGA | -0.187 ± 0.033
134 | AGTTGGCC | -0.152 ± 0.061
135 | GCTTCCAC | 0.109 ± 0.064
136 | CATTCAAC | -0.255 ± 0.034
137 | ATTAGATG | -0.137 ± 0.032
138 | TTAAAGAA | -0.0984 ± 0.037
139 | TAAGGGAA | -0.33 ± 0.043
140 | CATCCGGC | -0.0338 ± 0.017
141 | CCTCGGCC | -0.195 ± 0.031
142 | ACACCCAC | 0.361 ± 0.029
143 | CGTTATAC | -0.0513 ± 0.051
144 | AGTAACTA | -0.0819 ± 0.012
145 | CAAATAAG | 0.00592 ± 0.002
146 | CTTAGTCC | -0.158 ± 0.069
147 | TCACTAGA | 0.0954 ± 0.0055
148 | CGTGTGGA | 0.284 ± 0.0037
149 | TACCGCTA | 0.0729 ± 0.087
150 | TAGCCGAA | -0.0938 ± 0.015

Row | Sequence | PBM E-score of 8-mer
151 | AGAACCGC | 0.0263 ± 0.067
152 | AGACACTC | 0.0979 ± 0.086
153 | CAGTAATG | 0.0609 ± 0.00072
154 | GTCGCCGA | -0.0405 ± 0.038
155 | AACCCGTC | 0.125 ± 0.0017
156 | GCAGTAAC | 0.0357 ± 0.011
157 | ATACTCTA | -0.16 ± 0.032
158 | AAAAACTA | -0.143 ± 0.06
159 | GAGACACA | 0.053 ± 0.046
160 | ACTTCAAC | 0.159 ± 0.083
161 | AGCGACAG | 0.202 ± 0.077
162 | AGCATGGA | -0.118 ± 0.091
163 | CAAAATAG | -0.171 ± 0.042
164 | AAAAGTCT | -0.192 ± 0.081
165 | CATCAAGA | -0.245 ± 0.022
166 | AACGTAAC | -0.219 ± 0.064
167 | TGAATACA | -0.2 ± 0.035
168 | ACTCCCTG | -0.0934 ± 0.096
169 | GGGGGCAA | -0.0812 ± 0.086
170 | CAGACCTC | -0.267 ± 0.013
171 | AAGTCGTA | -0.131 ± 0.11
172 | ATATATCG | -0.0123 ± 0.037
